Measurements reported in PubChem BioAssay AID463173 (ICCB-Longwood Screening Facility, Harvard Medical School, 2010).
About 1,700 (3.3%) of roughly 52,000 compounds were called active. Rule as the data show it: active = survival mostly below about 52% (no sharp cut-off); inactive = mostly above about 56%. Some of the results follow.

System: Wild type
Assay: S. aureus survival, RN4220 and DeltatarO strains – OD600, teichoic acid synthesis inhibitors, primary screen (AID 463173)
Settings: S. aureus RN4220 wild type/DeltatarO growth, OD600, 18 h, active compounds read low, screened at 18.75 µg/mL (by protocol)

| SMILES | survival |
| --- | --- |
| COc1cc(C(=O)Oc2c(Sc3ccccc3)c(C)nn2-c2ccccc2)cc(OC)c1OC | inactive: 86% |
| CC1CCCN(CCCNC(=O)c2ccc3c(c2)N(Cc2ccccc2F)C(=O)c2ccccc2S3(=O)=O)C1 (centres undefined) | inactive: 169% |
| Cc1c(Cl)cccc1NC(=O)CCN1CCC(C(N)=O)CC1 | inactive: 98% |
| Cc1ccccc1-c1nc(CN2CCC(C(=O)NCc3ccccc3Cl)CC2)c(C)o1 | inactive: 85% |
| CC(C)(C)c1ccc(NC(=O)C2CCCN(c3cnccn3)C2)cc1 (centres undefined) | inactive: 114% |
| CCOc1ccc(N2CC(NC(=O)CCc3ccccc3)CC2=O)cc1 (centres undefined) | inactive: 78% |
| O=S1(=O)C=C(N2CCCC2)c2ccccc21 | inactive: 96% |
| CC(=O)c1cc2c(cc1N/C(=N/S(=O)(=O)c1ccc(C)cc1)c1ccccc1)OCO2 | inactive: 88% |
| COC(=O)c1ccc(NC(=O)CCS(=O)(=O)c2ccc(Br)cc2)cc1 | inactive: 85% |
| Cc1cc(C)c(NC(=O)Cn2c(=O)n(CC(=O)NCc3ccccc3Cl)c(=O)c3sccc32)c(C)c1 | inactive: 161% |
| COC(=O)C(NC(=O)CC(C)C)(Nc1nc2c(s1)CCCC2)C(F)(F)F (centres undefined) | inactive: 121% |
| CCOC(=O)c1c(NC(=O)/C=C/c2ccc(OCC)cc2)sc(C)c1C | inactive: 76% |
| CCOc1ccc(CNCc2c(C(=O)O)n(Cc3ccccc3F)c3cc(OC)ccc23)cc1 | inactive: 85% |
| CCc1cnc2c(c1SCC(=O)N1CCCCC1)c(=O)n(C)c(=O)n2C | inactive: 71% |
| CCCCOc1ccc(C(=O)NCCS(=O)(=O)N2CCN(c3ccc(F)cc3)CC2)cc1 | inactive: 65% |
| O=C(CSc1nc2ccccc2nc1Cc1ccccc1)NCc1ccccc1Cl | inactive: 132% |
| COc1ccc(-c2cc(C(=O)O)n(Cc3ccccc3)n2)cc1 | inactive: 63% |
| CCC(=O)N1CCc2cc(Br)cc(S(=O)(=O)N3CCC(C(=O)Nc4ccc(OC)cc4)CC3)c21 | active: 0% |
| CCc1ccc(NC(=O)c2ccc3c(O)c(S(=O)(=O)c4ccc(Cl)cc4)c(=O)[nH]c3c2)cc1 | inactive: 85% |
| CCCCN(CC)CCCNC(=O)c1sc2nc(C)cc(C)c2c1-n1cccc1 | inactive: 122% |
| Cc1ccc(C)c(NC(=O)CN2C(=O)CCc3ccccc32)c1 | inactive: 88% |
| Cc1ccc(S(=O)(=O)N(CC(O)Cn2c3ccccc3c3ccccc32)c2cccc(C(N)=O)c2)cc1 (centres undefined) | inactive: 45% |
| CCN(CC)c1cc(C)c2cc(NC(=O)c3cccc(OC)c3)ccc2n1 | inactive: 62% |

| SMILES | survival |
| --- | --- |
| Cc1nc2scc(-c3cccs3)c2c(=O)o1 | inactive: 106% |
| Cc1cccc2nc(-c3ccco3)c(Nc3ccc4c(c3)OCO4)n12 | inactive: 95% |
| CCOC(=O)C1CCCN(S(=O)(=O)c2ccc(F)c(C(=O)Nc3ccc(F)c(F)c3)c2)C1 (centres undefined) | inactive: 73% |
| Cc1ccc(NC(=O)CN(C)S(=O)(=O)c2ccc3c(c2)n(C)c(=O)c(=O)n3C)cc1C | inactive: 76% |
| Cc1ccc(-c2nc3c4ccccc4n(CC(=O)N4CCN(c5ccccc5F)CC4)c(=O)n3n2)cc1 | inactive: 71% |
| Cc1ccccc1CNC(=O)c1cnc2sc(N3CCOCC3)nn2c1=O | inactive: 86% |
| O=C(CS(=O)CC(=O)Nc1ccc2c(c1)OCCO2)Nc1ccc(Cl)cc1 (centres undefined) | inactive: 105% |
| Cc1nc(SC(C)C(=O)Nc2ccccc2C)cc(-c2ccccc2)n1 (centres undefined) | inactive: 79% |
| COc1ccc(CNC(=O)c2cc(-c3ccc(OC)cc3)on2)cc1 | inactive: 159% |
| Cc1ccc(-n2nnnc2CNC(=O)C(C)(C)C)cc1C | inactive: 64% |
| Cc1ccccc1C(=O)c1cccn1CC(=O)NCc1ccccc1 | inactive: 120% |
| CCN(CC)Cc1nc2ccccc2[nH]1 | inactive: 110% |
| CCOc1ccc(CCNC(=O)Cn2nc(C)n3c(cc4occc43)c2=O)cc1OCC | inactive: 87% |
| COc1ccc(OCC(=O)OC2CCN(C)CC2)cc1 | inactive: 118% |
| Cc1ccc(C)c(OCCn2c(-c3ccc(Cl)cc3)nc3ccccc3c2=O)c1C | inactive: 85% |
| CCn1c2ccccc2c2nnc(SCC(=O)O)nc21 | inactive: 68% |
| COc1ccc(CNC(=O)CSc2nc(-c3ccc(OC)cc3)cc(C(F)(F)F)n2)cc1 | inactive: 93% |
| O=C(CCn1c(=O)oc2ccccc21)n1c(=O)oc2ccccc21 | inactive: 109% |
| CC(C)Oc1ccc(CNC(=O)c2cc3ccccn3n2)cc1 | inactive: 97% |
| CC(=O)Nc1ccc(S(=O)(=O)N2CCC(n3c(C(F)(F)F)nc4cccnc43)CC2)cc1 | inactive: 75% |
| COc1cccc(-c2cc(C(=O)Nc3cc(Cl)ccc3O)on2)c1 | inactive: 102% |
| Cc1ccc(CCNC(=O)CCCn2nc(C)c3c(C)n(-c4ccccc4)nc3c2=O)cc1 | inactive: 79% |
| COc1cccc(N2CCN(C(=O)CCc3c(C)nc4c(c3C)c(=O)n(C)c(=O)n4C)CC2)c1 | inactive: 91% |

| SMILES | survival |
| --- | --- |
| Cc1ccccc1-n1c(SCc2ccc(Cl)cc2)nc2[nH]ncc2c1=O | inactive: 73% |
| CCC(C)NC(=O)c1ccc2c(c1)N(Cc1ccccc1)C(=O)c1ccccc1S2 (centres undefined) | inactive: 79% |
| CCOc1ccc(CNC(=O)C2CCCN(S(=O)(=O)c3ccc4c(ccn4C)c3)C2)cc1 (centres undefined) | inactive: 81% |
| CCN(CC)c1cc2c(cc1F)c(=O)c(S(=O)(=O)c1ccc(OC)cc1)cn2CC | inactive: 124% |
| CCOCCCNc1ccc(-c2ccccc2)nn1 | inactive: 102% |
| CC(C)(C)c1ccc(-c2nc(SCCCOc3ccccc3)n3[nH]c(=O)cc3n2)cc1 | inactive: 82% |
| COc1ccc(-c2c3c(=O)n(C)c(=O)n(C)c3c3c(C)nc4ccccc4n23)cc1 | inactive: 74% |
| COc1ccc(-c2nc(CN3CCC(C(=O)NCc4ccccc4)CC3)c(C)o2)cc1OC | inactive: 92% |
| Cn1nnc2c(N3CCN(c4ccccc4Cl)CC3)ncnc21 | inactive: 69% |
| CCOC(=O)c1ccccc1NC(=O)N(C(C)C)C1CCN(C(C)=O)CC1 | inactive: 83% |
| CCOC(=O)Cn1c(=O)n(-c2ccccc2OC)c2nc(-c3cccc(F)c3)nc(C(N)=O)c21 | inactive: 57% |
| Cc1ccc(-c2nnc(SCc3cccc(C#N)c3)o2)cc1 | inactive: 64% |
| CCOC(=O)c1cccnc1SCC(=O)Nc1ccc(C)cc1C | inactive: 71% |
| COc1ccc(-c2nc(C)c(CCNS(=O)(=O)c3cc(C)c(C)cc3C)s2)cc1 | inactive: 64% |
| O=C(NCCc1ccccc1)c1nnc(Cc2cccc(F)c2)o1 | inactive: 114% |
| CN(C)CCNC(=O)c1ccc2c(=O)n3c(nc2c1)CCCCC3 | inactive: 124% |
| CCCCc1ccc(NC(=O)c2ccc(=O)n(Cc3cccc(C)c3)c2)cc1 | inactive: 77% |
| Cc1ccc2c(c1)-c1c(cnc3cc(-c4ccccc4)nn13)CO2 | inactive: 68% |
| CCSc1ncc(Cl)c(C(=O)Nc2ccc(S(=O)(=O)N3CCCCC3)cc2)n1 | inactive: 93% |
| O=C(CCS(=O)(=O)c1cccs1)Nc1ccc(C(=O)Nc2ccccc2F)cc1 | inactive: 135% |
| Cc1ccc(C)c(Cn2cc(S(=O)(=O)c3ccc(Cl)cc3)c(=O)c3cc(F)ccc32)c1 | inactive: 75% |
| CCc1ccc(NC(=O)c2ccc3[nH]c(C)c(C)c3c2)cc1 | inactive: 152% |
| CCN(Cc1ccccc1)C(=O)CN(c1ccc(OC)cc1)S(=O)(=O)c1c(C)nn(C)c1C | inactive: 71% |

| SMILES | survival |
| --- | --- |
| COc1ccc(Cl)cc1NS(=O)(=O)c1ccc2c(c1)NC(=O)CC(=O)N2 | inactive: 80% |
| CCCCN(CCCC)CCNC(=O)c1cn(CC)c2ccc(S(=O)(=O)N(C)C3CCCCC3)cc2c1=O | inactive: 155% |
| CCOc1ccc(NC(=O)Cn2c(=O)n(-c3cccc(OC)c3)c(=O)c3c4c(sc32)CCCC4)cc1 | inactive: 98% |
| CC(=O)N1CCc2c(sc3c2c(=O)n(CCc2ccccc2)c(=O)n3Cc2ccc(Cl)cc2)C1 | inactive: 65% |
| CCOC(=O)C1CCN(C(=O)Cn2c(=O)oc3cc(S(=O)(=O)N4CCC(C)CC4)ccc32)CC1 | inactive: 130% |
| Cc1ccc(Cn2nnnc2CN2CCC(NC(=O)C(C)(C)C)CC2)cc1 | inactive: 122% |
| COCCNC(=O)Cn1c(=O)n(CCCCCC(=O)NCc2ccc3c(c2)OCO3)c(=O)c2sccc21 | inactive: 86% |
| CCOCCCNc1ncnc2c1cnn2-c1ccc(C)c(C)c1 | inactive: 69% |
| Cc1ccccc1NC(=O)CSc1nc2c(c(=O)n(C)c(=O)n2C)n1Cc1ccccc1F | inactive: 81% |
| Cc1cc2c(cc1S(=O)(=O)N1CCCCC1)OCC(=O)N2 | inactive: 111% |
| O=C(C1CCCCC1)N1CCN(c2ncnc3c2cnn3-c2ccccc2)CC1 | inactive: 101% |
| CCNc1nc(OC)nc(Oc2ccc(=O)[nH]n2)n1 | inactive: 67% |
| COc1ccc(-c2nc(CSc3nncn4c3cc3sccc34)c(C)o2)cc1OC | inactive: 88% |
| O=C(CN1C(=O)CCc2cc(S(=O)(=O)N3CCOCC3)ccc21)NCc1ccccc1 | inactive: 75% |
| CC(C)(C)c1ccc(S(=O)(=O)N2CCN(Cc3noc(CCC(=O)N4CCCCC4)n3)CC2)cc1 | inactive: 73% |
| CCc1ccc(NC(=O)CSC2=Nc3ccccc3C3=NC(CCC(=O)NCc4ccco4)C(=O)N23)cc1 (centres undefined) | inactive: 66% |
| CCCNC(=O)c1ccc2nc(CCc3ccccc3)oc2c1 | inactive: 73% |
| O=c1[nH]c2cc3c(cc2cc1CN(CCO)C(=S)Nc1cccc(Cl)c1)OCO3 | inactive: 99% |
| Cc1cc(C)cc(S(=O)(=O)c2cn(C)c3cc(N4CCCC4)c(F)cc3c2=O)c1 | inactive: 81% |
| O=C1OC(c2ccccc2)=C/C1=C/c1ccco1 | inactive: 133% |
